Reference: PubChem BioAssay AID485364 (National Center for Advancing Translational Sciences (NCATS), 2010)
Out of some 360,000 compounds screened, about 11,000 (3.1%) were called active. Inconclusive means that the source gave no clear call. Such entries were picked first, then a sample of the others. The call rests on the fitted dose curve; in most records, active means well fitted inhibition curve with a large enough effect; inconclusive means small, poorly fitted or top-dose-only effect; inactive means no such curve, though single readings can be large or run the other way. No potency is given beside an inconclusive call; the fits are too rough.

target: Schistosoma mansoni thioredoxin glutathione reductase (TGR) (UniProt Q962Y6); experiment: qHTS Assay for the Inhibitors of Schistosoma Mansoni Peroxiredoxins; details: purified TGR, DTNB reduction, TNB absorbance 405 nm; activity change, negative = inhibition: at 114 µM (top of the series) unless noted; further: nearly all actives have a fitted effect of over 60% in size
How it was run: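 First, TGR (20 nM dispensed) and NADPH were mixed with compound. Second, a 15 min room-temperature incubation followed. Third, further NADPH and then DTNB were added to start the reaction. Finally, TNB absorbance was monitored kinetically.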
On the % scale 0 is the no-effect control and ±100 the full control effect; potency means the concentration at half of the fitted maximal effect; tags describe the fitted curve by direction and shape.

Question: With COC(=O)[C@H](CCSC)NC(=O)Nc1ccc(C(C)=O)cc1 as the compound, how does the Potency read?
Answer: inconclusive [inhibitor, partial curve]

Question: For Cc1ccc(C(=O)NC(=S)Nc2ccc3c(c2)OCCO3)c(C)c1, which Potency is on record?
Answer: inconclusive [inhibitor, full curve, poor fit]

Question: With CNC(=O)c1ccc(CN(C)CC(=O)Nc2ccccc2C(=O)NC2CC2)cc1 as the compound, how does the “activity change, negative = inhibition” value read?
Answer: inactive: -8.98%

Question: With FC(F)Oc1ccccc1NC(=S)NCc1ccco1 as the compound, how does the Potency read?
Answer: inconclusive [inhibitor, full curve, poor fit]

Question: CCOc1ccc(-n2c(=O)c3c(C)c(C)sc3n(CC(=O)N3CCC(C)CC3)c2=O)cc1 was tested. Which “activity change, negative = inhibition” value did it give?
Answer: inactive: 4.92%

Question: Which Potency does the source give for O=C(O)c1ccc2c(c1)C(=O)N(c1cccc(C(=O)/C=C/c3ccccc3)c1)C2=O here?
Answer: active: 25.1 µM

Question: COC(=O)C1C(=O)C2=C(CC1C)NC(C)=C(C(=O)OCc1ccc(OC)cc1)C2c1ccc(C)o1 (stereo not drawn) was tested. Which Potency did it give?
Answer: inconclusive [inhibitor, partial curve]

Question: Cc1ccccc1N1C(=O)NC(=O)/C(=C/c2ccc(N3CCOCC3)o2)C1=O was tested. Which Potency did it give?
Answer: active: 22.4 µM

Question: Which Potency does the source give for N=c1c(S(=O)(=O)c2ccc(Cl)cc2)cc2c(=O)n3ccccc3nc2n1CCN1CCOCC1 here?
Answer: active: 44.7 µM

Question: With COC(=O)C1=C(c2ccc(OC(F)(F)F)cc2)C[C@@H]2CC[C@H]1N2C(=O)NC1CCCCC1 as the compound, how does the Potency read?
Answer: inconclusive [inhibitor, single point]

Question: Which Potency does the source give for Cc1cc(C)c(NC(=O)CCCn2c(C)c3cnn(-c4ccccc4)c(=O)c3c2C)c(C)c1 here?
Answer: inconclusive [inhibitor, partial curve]

Question: For O=C(C[n+]1ccccc1)N1c2ccccc2Sc2ccccc21, which Potency is on record?
Answer: active: 28.2 µM

Question: How did the “activity change, negative = inhibition” value turn out when CC(C)CC(=O)Nc1nnc(SCc2cc(=O)n3ccccc3n2)s1 was run?
Answer: inactive: -2.31%

Question: Cc1oc2cc3oc(=O)c(CCC(=O)NCCCn4ccnc4)c(C)c3cc2c1C was tested. Which “activity change, negative = inhibition” value did it give?
Answer: inactive: 1.87%

Question: How did the Potency turn out when CCOC(=O)c1nnc(-c2ccccc2)nc1Oc1ccccc1Cl was run?
Answer: inconclusive [inhibitor, partial curve]

Question: How did the Potency turn out when O=c1[nH]c(CN2CCc3ccccc32)nc2scc(-c3cccs3)c12 was run?
Answer: inconclusive [inhibitor, partial curve]

Question: COC(=O)c1ccc(CC(=O)c2ccc(O)cc2O)o1 was tested. Which Potency did it give?
Answer: inconclusive [inhibitor, partial curve]

Question: COc1cc(C(=O)N/N=c2/sc3ccccc3n2C)cc(OC)c1OC was tested. Which “activity change, negative = inhibition” value did it give?
Answer: inactive: 0.265%

Question: How did the “activity change, negative = inhibition” value turn out when CC(=O)c1cccc(N(C(=O)CNC(=O)c2ccco2)C(C(=O)NC2CCCC2)c2ccc(C)o2)c1 (stereo not drawn) was run?
Answer: inactive: 3.47%

Question: For Cc1ccc(CNC(=O)c2cnc3c(-c4ccccc4)c(C)nn3c2C)o1, which Potency is on record?
Answer: inconclusive [inhibitor, single point]

Question: CC1(C)CC(=O)C(C(O)c2ccccc2)C(C)(C)N1 (stereo not drawn) was tested. Which “activity change, negative = inhibition” value did it give?
Answer: inactive: -0.613%

Question: C/C=C/C(O)c1ccc2ccccc2c1 (stereo not drawn) was tested. Which “activity change, negative = inhibition” value did it give?
Answer: inactive: 6.3%

Question: For COCCn1c(C)cc(C2=NNC(=Nc3ccc(OC)cc3)SC2)c1C, which “activity change, negative = inhibition” value is on record?
Answer: inactive: 4.91%

Question: With CC(=O)N1CCN(S(=O)(=O)c2cccc(C(=O)Nc3ccc(F)c(F)c3)c2)CC1 as the compound, how does the “activity change, negative = inhibition” value read?
Answer: inactive: 3.22%

Question: Which Potency does the source give for Cc1ccc2cc(C(c3nnnn3C3CCCC3)N3CCN(c4ccc(F)cc4)CC3)c(=O)[nH]c2c1 (stereo not drawn) here?
Answer: inconclusive [inhibitor, partial curve]

Question: O=C(c1ccco1)N1CCN(C(=O)C2CCCN(S(=O)(=O)c3cccc4nsnc34)C2)CC1 (stereo not drawn) was tested. Which Potency did it give?
Answer: inconclusive [inhibitor, single point]

Question: Which Potency does the source give for CCCCN(CC)Cc1ccc(CNC(=S)Nc2ccc(C)cc2Cl)o1 here?
Answer: inconclusive [inhibitor, partial curve]

Question: Which “activity change, negative = inhibition” value does the source give for O=C(O)CCc1nnc2cnc3ccccc3n12 here?
Answer: inactive: 1.68%

Question: Cc1nnc(N(Cc2ccco2)C(=O)c2ccc(C#N)cc2)s1 was tested. Which Potency did it give?
Answer: inconclusive [inhibitor, full curve]

Question: Nc1nc(Cl)nc2ncn(Cc3ccccc3)c12 was tested. Which Potency did it give?
Answer: inconclusive [inhibitor, partial curve]

Question: For O=C(Cn1c(=O)oc2cc(S(=O)(=O)NCc3ccccc3)ccc21)NCc1ccccc1Cl, which “activity change, negative = inhibition” value is on record?
Answer: inactive: -3.25%

Question: CCCCOc1ccc(CCC(=O)N/N=C/c2ccco2)cc1 was tested. Which Potency did it give?
Answer: inconclusive [inhibitor, partial curve, poor fit]

Question: For COCc1cc(C)nc(Nc2ccccc2C)c1C#N, which “activity change, negative = inhibition” value is on record?
Answer: inactive: 5.91%

Question: With Cc1ccc(Cl)cc1N1CCN(C(=O)CCS(=O)(=O)c2cccc3nonc23)CC1 as the compound, how does the Potency read?
Answer: inconclusive [inhibitor, partial curve]

Question: How did the Potency turn out when O=C(O)c1ccccc1/C=N/Nc1ccc(S(=O)(=O)N2CCCC2)cc1[N+](=O)[O-] was run?
Answer: inconclusive [inhibitor, partial curve]

Question: Which “activity change, negative = inhibition” value does the source give for CCN(CC)CCCN=Cc1c(O)n(CCc2ccc(F)cc2)c(=O)[nH]c1=O here?
Answer: inactive: 7.64%

Question: N#C/C(=C/c1ccc(-c2cc([N+](=O)[O-])ccc2Cl)o1)C(N)=O was tested. Which Potency did it give?
Answer: inconclusive [inhibitor, single point]

Question: With CCN(CC)C(=O)c1ccc(CS(=O)(=O)c2ccc(OC)cc2)o1 as the compound, how does the Potency read?
Answer: inconclusive [inhibitor, partial curve]

Question: For Cn1c2c(c(=O)n(C)c1=O)[C@@]1(C(=O)Nc3ccccc31)C(C#N)=C(N)O2, which Potency is on record?
Answer: inconclusive [inhibitor, partial curve]

Question: COc1ccc(CNC(=O)c2ccc(CSc3nc4ccncc4n3Cc3ccccc3F)cc2)cc1 was tested. Which “activity change, negative = inhibition” value did it give?
Answer: inactive: -0.0426%

Question: Which Potency does the source give for O=Cc1c(Cl)nc2ccccn2c1=O here?
Answer: inconclusive [inhibitor, full curve, poor fit]

Question: O=C(c1ccc(CS(=O)c2cccc(Cl)c2)o1)N1CCCCCC1 (stereo not drawn) was tested. Which Potency did it give?
Answer: inconclusive [inhibitor, full curve]

Question: For Cc1ccc(C(=O)/C=C/Nc2ccccc2C(N)=O)o1, which Potency is on record?
Answer: inconclusive [inhibitor, single point]

Question: With C#CCNC(=O)C1=C[C@H](c2ccccc2)[C@@H](CCCO)[C@H](OCC)O1 as the compound, how does the Potency read?
Answer: active: 20 µM

Question: For NC1=C(O)C(=O)C(c2ccccc2)O1 (stereo not drawn), which Potency is on record?
Answer: inconclusive [inhibitor, partial curve]

Question: How did the Potency turn out when Cc1ccc(NC(=O)CCn2cccc2)cc1C was run?
Answer: inconclusive [inhibitor, full curve, poor fit]

Question: Which Potency does the source give for Cc1ccc(CNC(=O)C2c3ccccc3C(=O)N3CCc4ccccc4C23)o1 (stereo not drawn) here?
Answer: active: 5.62 µM

Question: O=C(NCCN1CCOCC1)c1cn(-c2ccccc2)nc1-c1cccs1 was tested. Which Potency did it give?
Answer: inconclusive [inhibitor, partial curve]

Question: For O=C(O)c1ccccc1C(=O)OCc1c(-c2ccccc2)ncc2ccccc12, which Potency is on record?
Answer: inconclusive [inhibitor, partial curve]

Question: How did the Potency turn out when COc1ccc(C(=O)NCC(=O)Nc2cccc(S(=O)(=O)NCc3ccco3)c2)cc1OC was run?
Answer: active: 44.7 µM

Question: Which Potency does the source give for COc1ccc(OC)c(C(c2c(O)nc(SC)[nH]c2=O)c2c(O)nc(SC)[nH]c2=O)c1 here?
Answer: active: 1.41 µM

Question: How did the “activity change, negative = inhibition” value turn out when CCCOc1ccc(N2C(=O)CC(N3CCOCC3)C2=O)cc1 (stereo not drawn) was run?
Answer: inactive: -18%

Question: For Cn1c(C(=O)N2CCCC(C(=O)NCc3ccc4c(c3)OCO4)C2)cc2sccc21 (stereo not drawn), which “activity change, negative = inhibition” value is on record?
Answer: inactive: -6.32%

Question: How did the Potency turn out when CN(C)Cc1c(O)c(Cl)cc2c3c(c(=O)oc12)CCCC3 was run?
Answer: inconclusive [inhibitor, full curve]

Question: How did the “activity change, negative = inhibition” value turn out when CCCCCOc1ccc(NC(=O)Cc2csc(C)n2)cc1 was run?
Answer: inactive: 3.02%

Question: O=Cc1cccc(OC(=O)/C=C/c2ccco2)c1 was tested. Which Potency did it give?
Answer: active: 28.2 µM

Question: How did the “activity change, negative = inhibition” value turn out when CN(C(=O)Cn1cc(S(=O)(=O)N2CCN(c3ccccc3F)CC2)c2ccccc2c1=O)c1ccc(Cl)cc1 was run?
Answer: inactive: 8.96%

Question: With CCc1ccc(-c2nc(CN3CCCC(C(=O)NCc4ccc(C)cc4)C3)c(C)o2)cc1 (stereo not drawn) as the compound, how does the “activity change, negative = inhibition” value read?
Answer: inactive: 4.25%

Question: How did the Potency turn out when CC(C)(C)c1csc(Sc2ccc([N+](=O)[O-])cn2)n1 was run?
Answer: inconclusive [inhibitor, partial curve]

Question: With Cc1ccccc1C(=O)N1CC(=O)Nc2ccc(F)cc2C1c1ccccc1 (stereo not drawn) as the compound, how does the “activity change, negative = inhibition” value read?
Answer: inactive: 9.6%

Question: With COC(=O)C1=C(C(=O)OC)C2(OC1c1ccc(Br)cc1)C(=O)c1ccccc1C2=O (stereo not drawn) as the compound, how does the Potency read?
Answer: inconclusive [inhibitor, partial curve]

Question: Which “activity change, negative = inhibition” value does the source give for COC(=O)/C(C#N)=C/c1c[nH]c2ccccc12 here?
Answer: inactive: -1.6%

Question: Which “activity change, negative = inhibition” value does the source give for O=C(c1ccc2c(c1)N(Cc1ccc(F)cc1Cl)C(=O)c1ccccc1S2)N1CCC2(CC1)OCCO2 here?
Answer: inactive: 1.53%

Question: How did the Potency turn out when Cc1cc2nc3s/c(=C/c4ccc(-c5ccccc5C(=O)O)o4)c(=O)n3c2cc1C was run?
Answer: active: 3.55 µM

Question: O=C(CCS(=O)(=O)c1cccc2nsnc12)NCc1ccccc1Cl was tested. Which Potency did it give?
Answer: inconclusive [inhibitor, partial curve]

Question: CCOc1ccc(C(=O)COC(=O)CC)cc1 was tested. Which “activity change, negative = inhibition” value did it give?
Answer: inactive: -26%

Question: How did the Potency turn out when CC(C)CCOC(=O)C1C2C=CC3(CN(Cc4cccs4)C(=O)C13)O2 (stereo not drawn) was run?
Answer: inconclusive [inhibitor, partial curve]

Question: For N#Cc1c(N)[nH]c(=S)c(C#N)c1-c1ccccc1, which Potency is on record?
Answer: inconclusive [inhibitor, full curve, poor fit]

Question: For CCOc1cc(/C=C2\C(=O)NC(=O)N(CCc3ccc(F)cc3)C2=O)ccc1O, which Potency is on record?
Answer: inconclusive [inhibitor, full curve, poor fit]

Question: How did the Potency turn out when Cc1cc2c(c(=O)o1)C1O[C@](c3ccsc3)(Cc3cc(C#N)ccc31)O2 was run?
Answer: inconclusive [inhibitor, full curve]

Question: Which Potency does the source give for Cc1cccc(-c2nc(CS(=O)CC(=O)NC(C)CCc3ccccc3)c(C)o2)c1 (stereo not drawn) here?
Answer: active: 15.8 µM

Question: How did the Potency turn out when CS(=O)(=O)N1CCC(C(=O)NCc2ccco2)CC1 was run?
Answer: inconclusive [inhibitor, partial curve]

Question: Which Potency does the source give for CC1=NNC(=O)C1CC(=O)N/N=C/C(Br)=C/c1ccccc1 (stereo not drawn) here?
Answer: inconclusive [inhibitor, partial curve]
